In all, about 280,000 compounds went through this assay and about 100 (0.036%) were called active. Inconclusive results, whose numbers are uncertain, are shown with a selection of clear calls. The call rests on the fitted dose curve; in most records, active means well fitted inhibition curve with a large enough effect in the signal ratio, with a control signal flat (not every such curve was filed as active); inconclusive means small, poorly fitted or top-dose-only effect, or effect the other way, or a change in a side signal; inactive means no such curve, though single readings can be large or run the other way; the % refers to the signal ratio. Potencies beside an inconclusive call are fits to weak or partial responses and may not hold up. “Side channel” marks fits to a control or component signal instead of the main read-out.
What follows are compounds tested against Muscleblind-like protein 1 (Homo sapiens) (UniProt Q9NR56) (assay: qHTS Assay for Inhibitors of MBNL1-poly(CUG) RNA binding). Details: TR-FRET MBNL1-His/biotin-(CUG)12 binding, 665/545 ratio; series mostly up to 57.5 µM.
How it was run: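 TR-FRET between His-tagged MBNL1 and biotin-(CUG)12 RNA, detected with Tb anti-His antibody (0.055 ng/ul) and streptavidin-XL665 (5 nM), 60 min at room temperature. Compounds titrated 92 nM to 58 uM; 665/545 nm ratio normalized to buffer and complex controls.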
Potency means the concentration at half of the fitted maximal effect; tags describe the fitted curve by direction and shape or compound fluorescence and quenching.

Sequence of UniProt Q9NR56 (Q9NR56 whole entry, looked up): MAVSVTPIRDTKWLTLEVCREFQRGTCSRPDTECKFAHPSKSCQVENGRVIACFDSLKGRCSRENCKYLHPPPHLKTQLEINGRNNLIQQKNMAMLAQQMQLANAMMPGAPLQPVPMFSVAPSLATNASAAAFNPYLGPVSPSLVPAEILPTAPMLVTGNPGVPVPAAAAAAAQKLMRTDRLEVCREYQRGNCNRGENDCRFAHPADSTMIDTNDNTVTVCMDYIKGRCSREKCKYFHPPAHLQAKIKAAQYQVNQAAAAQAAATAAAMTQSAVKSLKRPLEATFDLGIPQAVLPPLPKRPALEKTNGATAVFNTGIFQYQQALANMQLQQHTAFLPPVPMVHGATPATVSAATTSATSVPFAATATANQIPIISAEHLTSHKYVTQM

Structure (SMILES)	Potency
CCc1nc(SCC(=O)NNC(=O)C(C)C)c2ccccc2n1	inconclusive: 39.8 µM [fluorescent, side channel, single point]
CN(C)c1cc2c(c(N(C)C)c1)C(=O)c1ccccc1C2=O	inconclusive: 8.91 µM [quencher, side channel, partial curve]
CN=C(Nc1cc(Cl)ccc1Cl)SC1CC(=O)N(c2ccc(C(=O)OC)cc2)C1=O (centres undefined)	inconclusive: 5.62 µM [fluorescent, side channel, single point]
c1ccc2nc3c(nc2c1)c1ccccc1n3CCN1CCOCC1	inconclusive: 31.6 µM [quencher, side channel, partial curve]
COc1ccc(CCN(C)Cc2c(O)ccc3ccccc23)cc1OC	inactive
O=[N+]([O-])c1cc(/C=N\Nc2nc(-c3ccccc3)cs2)ccc1O	inconclusive: 17.8 µM [quencher, side channel, partial curve]
CCNC(=S)/N=C(/Nc1ccccc1)Nc1nc(C)cc(C)n1	inactive
O=c1[nH]c(Cc2ccccn2)nc2scc(-c3ccc(Cl)cc3)c12	inconclusive: 39.8 µM [quencher, side channel, single point]
O=C(Nc1cccc(Cl)c1)Nc1csc([N+](=O)[O-])c1	inconclusive: 25.1 µM [quencher, side channel, single point]
CC1CCCCN1C(=O)c1ccc(COc2ccc([N+](=O)[O-])cc2)o1 (centres undefined)	inconclusive: 15.8 µM [quencher, side channel, partial curve]
O=C1Nc2ccccc2/C1=N\N=C\C1=C(N2CCOCC2)C(=C\c2ccccc2)/CC1	inconclusive: 11.2 µM [quencher, side channel, partial curve]
O=C(CCCN1C(=O)c2cccc3cccc(c23)C1=O)N1CCN(c2ccccc2)CC1	inconclusive: 8.91 µM [quencher, side channel, partial curve]
C=C(C)C1CC=C(C)/C(=N/NC(=O)COc2ccc(C)cc2)C1 (centres undefined)	inconclusive: 39.8 µM [quencher, side channel, single point]
Cc1sc(-c2ccncc2)nc1OC(=O)c1ccccc1	inconclusive: 14.1 µM [quencher, side channel, partial curve]
COc1ccc([N+](=O)[O-])cc1NCc1cccnc1	inconclusive: 14.1 µM [quencher, side channel, partial curve]
COCCNC(=S)NCCCNc1nc2cc3c(cc2cc1C#N)OCO3	inconclusive: 20 µM [quencher, side channel, partial curve]
O=C(C[n+]1ccccc1)Nc1ccc(Cl)c([N+](=O)[O-])c1	inconclusive: 14.1 µM [quencher, side channel, partial curve]
O=C(Nc1ccc(CN2CCOCC2)cc1)c1ccc(-c2ccc(Br)cc2)o1	inconclusive: 15.8 µM [quencher, side channel, partial curve]
Cc1ccc(S(=O)(=O)Oc2ccc(/C=N/NC(=O)c3nn(C)cc3[N+](=O)[O-])cc2)cc1	inconclusive: 8.91 µM [quencher, side channel, partial curve]
CS(=O)(=O)c1ccc2c(c1)SC1=NC(=O)/C(=C/c3ccco3)C(=N)N12	inconclusive: 20 µM [quencher, side channel, single point]

Structure (SMILES)	Potency
COc1ccc(-n2ncc3c(N4CCCCC4)ncnc32)cc1	inactive
CCc1nnc(NS(=O)(=O)c2ccc(Nc3ccc4nonc4c3[N+](=O)[O-])cc2)s1	inconclusive: 12.6 µM [quencher, side channel, partial curve]
CN(CC(=O)Nc1ccc(F)c(Cl)c1)S(=O)(=O)c1cccc2nsnc12	inconclusive: 3.16 µM [quencher, side channel, full curve]
CCC(CC)COC(=O)C(C#N)c1nc2ccccc2nc1N1CCOCC1 (centres undefined)	inactive
CS(=O)(=O)N1CCN(c2ccc([N+](=O)[O-])c(SCc3ccco3)c2)CC1	inconclusive: 17.8 µM [quencher, partial curve]
O=C(N/N=C/c1ccc(Cl)cc1)c1n[nH]c2c1CCCC2	inactive
CCn1c(/C=C/N(C)c2ccccc2)[n+](CC)c2ccc(Cl)cc21	inconclusive: 25.1 µM [quencher, side channel, single point]
CCOc1ccc(CN2CCN(Cc3cccc4nonc34)CC2CCO)cc1 (centres undefined)	inactive
COc1ccc(F)cc1C(=O)C1CCCN(Cc2cnc(N3CCCC3)s2)C1 (centres undefined)	inconclusive: 0.794 µM [fluorescent, side channel, single point]
N/C(=N\OC(=O)CCC1CCCC1)c1ccc([N+](=O)[O-])cc1	inconclusive: 15.8 µM [quencher, side channel, partial curve]
NC(=O)c1cc([N+](=O)[O-])cc2c1C=Cc1ccccc1O2	inconclusive: 17.8 µM [quencher, partial curve]
C/C(=N/NC(=O)c1cnccn1)c1cccs1	inconclusive: 17.8 µM [quencher, side channel, partial curve]
Nc1nc2ccc([N+](=O)[O-])cc2[nH]1	inconclusive: 12.6 µM [quencher, side channel, partial curve]
CCCC(=O)Nc1c2c(nn1-c1ccc([N+](=O)[O-])cc1)CS(=O)(=O)C2	inconclusive: 25.1 µM [quencher, single point]
CCS(=O)(=O)Nc1cccc(C2=NN(C(=O)c3ccco3)C(c3ccco3)C2)c1 (centres undefined)	inconclusive: 22.4 µM [quencher, side channel, partial curve]
Cc1cc(C)n(CCC(=O)N=Nc2c(O)[nH]c3ccccc23)n1	inconclusive: 15.8 µM [quencher, side channel, partial curve]
CCn1c(/C=C/c2ccccc2)nc2ccccc21	inactive
O=C1C2CCCN2C(=O)N1CCCN1CCN(c2ccc([N+](=O)[O-])cc2)CC1 (centres undefined)	inconclusive: 17.8 µM [quencher, side channel, partial curve]
COC(=O)/C=c1\sc2ncnn2c1=O	inconclusive: 25.1 µM [quencher, side channel, partial curve]
O=C1Nc2ccccc2C1=Nc1ccc(F)cc1	inconclusive: 20 µM [quencher, side channel, partial curve]

Structure (SMILES)	Potency
Cc1cccn2c(=O)c(/C=C(\C#N)S(=O)(=O)c3ccc(Cl)cc3)c(N3CCC(C(N)=O)CC3)nc12	inconclusive: 15.8 µM [quencher, side channel, partial curve]
O=C1c2ccccc2-c2n[nH]c(=O)c3ccc(N4CCCCC4)c1c23	inconclusive: 8.91 µM [quencher, side channel, partial curve]
Cc1ccc(CC(=O)Nc2cccc([N+](=O)[O-])c2)cc1	inconclusive: 28.2 µM [quencher, side channel, partial curve]
CCc1nnc(N/N=C/c2ccc(N3CCC(C)CC3)c([N+](=O)[O-])c2)n1N	inconclusive: 17.8 µM [quencher, side channel, partial curve]
C[n+]1cnc(-c2ccccc2)cc1-c1ccccc1	inconclusive: 14.1 µM [quencher, side channel, partial curve]
COc1ccc(N=Nc2cc(C)c(O)c(CN3CCCCC3)c2)cc1	inactive
COc1ccc(NC(=O)C/C(C)=N/NC(=O)c2cccs2)c([N+](=O)[O-])c1	inconclusive: 14.1 µM [quencher, partial curve]
CCCCn1c(N)c(N(Cc2ccccc2OC)C(=O)CCC(C)C)c(=O)[nH]c1=O	inconclusive: 15.8 µM [quencher, side channel, partial curve]
CCOc1ccccc1NC(=O)c1cc(S(=O)(=O)NCc2ccco2)ccc1F	inactive
C[C@@H](C(=O)NCc1ccccn1)[C@@H]1C[C@@]1(C)[C@@H](NC(=O)OCc1ccccc1)c1ccccc1	inconclusive: 39.8 µM [inhibitor, partial curve]
CCOC(=O)N1C(=O)[C@@](c2ccc(Cl)cc2)(C(C)C)N1C(=O)OCC	inactive
CCn1c(SCC(=O)Nc2nc(C)c(C)s2)nnc1-c1cccs1	active: 39.8 µM
COC(=O)CCCC1=CC2=C(c3ccccc3)C(=O)C(C)(OC(=O)C3CCCC3)C(=O)C2=CN1c1ccc(OC)cc1 (centres undefined)	inconclusive: 31.6 µM [quencher, side channel, single point]
COc1ccccc1NC(CC(=O)c1ccccc1)C(=O)OCC(=O)c1ccc(C)cc1 (centres undefined)	inconclusive: 39.8 µM [fluorescent, side channel, partial curve]
Cc1cc(-c2ccc(/C=N/n3cnnc3)o2)c(C)c([N+](=O)[O-])c1	inconclusive: 14.1 µM [quencher, side channel, partial curve]
OC[C@H]1O[C@@H](n2cnc3c(NC4CCCC4)ncnc32)[C@H](O)[C@@H]1O	inactive
Cc1cc(Cl)c2oc(C(=O)N3CCN(C(=O)c4ccco4)CC3)c(C)c2c1	inactive
CC(=O)N(C(C)=O)n1c(/C=C/c2ccc([N+](=O)[O-])cc2)nc2ccccc2c1=O	inconclusive: 12.6 µM [quencher, side channel, partial curve]
Cc1ccccc1C(=O)NNC(=S)Nc1cccc(C(F)(F)F)c1	inconclusive: 6.31 µM [fluorescent, side channel, full curve, poor fit]
